# PMC11066036
# Sequences of proteins named here, by UniProt entry; tags and fusion partners are left off. A change or cut given only in a name is not applied to a line headed by its entry. A line that says so, or that is headed by a name, gives the form on record, which may keep a tag or linker.
# full-length wild-type HPK1 with NanoBit tag (Q92918-2, form named): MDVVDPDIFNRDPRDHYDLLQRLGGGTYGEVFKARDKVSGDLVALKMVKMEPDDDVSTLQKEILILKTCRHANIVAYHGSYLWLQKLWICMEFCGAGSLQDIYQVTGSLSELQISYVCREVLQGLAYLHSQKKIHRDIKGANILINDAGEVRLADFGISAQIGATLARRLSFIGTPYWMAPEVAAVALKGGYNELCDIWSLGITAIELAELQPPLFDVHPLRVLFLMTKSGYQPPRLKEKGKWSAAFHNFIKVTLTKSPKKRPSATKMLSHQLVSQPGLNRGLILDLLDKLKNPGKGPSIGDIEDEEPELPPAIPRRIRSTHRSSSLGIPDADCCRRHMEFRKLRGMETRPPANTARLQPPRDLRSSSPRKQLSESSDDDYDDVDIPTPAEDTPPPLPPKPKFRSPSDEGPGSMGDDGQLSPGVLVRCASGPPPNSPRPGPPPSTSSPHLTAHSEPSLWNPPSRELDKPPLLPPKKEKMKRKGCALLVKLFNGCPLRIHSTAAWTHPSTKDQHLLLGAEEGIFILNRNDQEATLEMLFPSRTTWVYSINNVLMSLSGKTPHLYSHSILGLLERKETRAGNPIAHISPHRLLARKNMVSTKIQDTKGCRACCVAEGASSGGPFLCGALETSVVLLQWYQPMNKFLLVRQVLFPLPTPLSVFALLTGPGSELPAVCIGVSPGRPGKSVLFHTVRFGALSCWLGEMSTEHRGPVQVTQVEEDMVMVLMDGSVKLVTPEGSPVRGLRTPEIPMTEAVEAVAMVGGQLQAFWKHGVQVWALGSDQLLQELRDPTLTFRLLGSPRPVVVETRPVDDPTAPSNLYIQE
# No constants are given. Whether binding was seen depends on the method and setting. Binding seen in cells or lysates may run through a third protein.
# Target: full-length wild-type HPK1 with NanoBit tag (UniProt Q92918)
# Assay: split reporter; NanoBit in Jurkat cells expressing tagged full-length HPK1; test for HPK1 dimers
substance,measurement,value
full-length wild-type HPK1 with NanoBit tag (from UniProt Q92918-2 1-821) (enzyme),binding,no binding
